In PubChem BioAssay AID504845 (National Center for Advancing Translational Sciences (NCATS), 2011):
Out of some 390,000 compounds screened, about 150 (0.038%) were called active. This list was built around the results that the source calls inconclusive (neither active nor inactive); the mix of calls is not that of the screen. Calls come from the whole dose curve; as a rule, active = well fitted inhibition curve with a large enough effect; inconclusive = small, poorly fitted or top-dose-only effect; inactive = no such curve, though single readings can be large or run the other way. Potencies of inconclusive entries are doubtful fits and often do not repeat.

biological target: Regulator of G-protein signaling 4 (Homo sapiens) (UniProt P49798); test: Inhibitors of Regulator of G Protein Signaling (RGS) 4: qHTS; details: Transcreener GDP fluorescence polarization, RGS4-accelerated GTP hydrolysis; series mostly up to 114 µM; note: nearly all actives have a fitted effect of over 75% in size
How it was run: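 MLSMR compounds (23 nl, pin-transferred) preincubated 10 min at room temperature with a 500nM (2x) first reagent, then RGS4 at 900nM (2x) plus Transcreener GDP mix added; fluorescence polarization (620/688 nm) read before and after 90 min at 30 °C.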
% is set by controls: 0 for no effect and ±100 for the full control effect; potency is the fitted concentration of half-maximal effect; tags give direction and shape of the fitted curve.

Sequence of UniProt P49798 (P49798 whole entry, looked up): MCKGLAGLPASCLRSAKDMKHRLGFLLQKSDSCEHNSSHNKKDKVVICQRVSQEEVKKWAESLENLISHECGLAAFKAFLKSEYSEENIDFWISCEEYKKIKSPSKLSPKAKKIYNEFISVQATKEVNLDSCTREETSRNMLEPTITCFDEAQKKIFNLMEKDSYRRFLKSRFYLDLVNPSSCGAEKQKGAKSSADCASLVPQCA

SMILES | Potency | activity change, negative = inhibition
Cc1nn(C)c(C)c1CN(C)C(=O)c1cnn2c1NC(c1ccccc1)CC2C(F)(F)F (configuration not stated) | inactive | –
CC(C(=O)Nc1ccccc1C(=O)N1CCOCC1)N(c1ccc(Cl)cc1)S(C)(=O)=O (configuration not stated) | inconclusive: 17.8 µM [inhibitor, full curve, poor fit] | –
O=C(O)c1ccc(CN2C(=O)CSC2=S)cc1 | inconclusive: 79.4 µM [inhibitor, partial curve, poor fit] | –
Clc1ccc(N2CCOCC2)nn1 | inconclusive: 70.8 µM [inhibitor, partial curve, poor fit] | –
Cn1c(=O)[nH]c(=O)c2c1nc(SCCN1CCCCC1)n2CCCc1ccccc1 | inconclusive: 50.1 µM [inhibitor, partial curve, poor fit] | –
Cc1cc(N=Cc2c(O)ccc3ccccc23)no1 | inconclusive: 50.1 µM [inhibitor, partial curve, poor fit] | –
CCC(=O)N(CCc1ccccc1)Cc1cc2cc3c(cc2[nH]c1=O)OCO3 | inconclusive: 89.1 µM [inhibitor, single point] | –
Cc1ccc(O)c(-c2cc(C(=O)Nc3ccc(S(=O)(=O)Nc4nc(C)cc(C)n4)cc3)[nH]n2)c1 | inconclusive: 89.1 µM [inhibitor, single point] | –
CC(C)c1nnc(NC(=O)Cc2ccccc2[N+](=O)[O-])s1 | inactive | –
CN(Cc1ccccc1)c1nc(-c2ccc(F)cc2)cc(C(F)(F)F)n1 | inactive | –
CC(N)(Cc1ccc(O)cc1)C(=O)O (configuration not stated) | inconclusive: 0.299 µM [inhibitor, full curve, poor fit] | –
CCOc1ccc(C(=S)NC2CCCCC2)cc1OC | inconclusive: 17.8 µM [inhibitor, full curve, poor fit] | –
COc1cc(/C=C2\C(=O)ON=C2c2ccccc2)cc(OC)c1OC | inconclusive: 22.4 µM [inhibitor, full curve, poor fit] | –
O=C(Nc1nc2ccc(F)cc2s1)C1CCN(S(=O)(=O)c2cc([N+](=O)[O-])ccc2Cl)CC1 | inactive | –
Cc1cccc(/C=N/NC(=O)c2cc(C3CC3)nc3ccccc23)n1 | inactive | –
O=C(Oc1ccc(-c2cn3c(n2)SCC3)cc1)c1ccccc1 | inconclusive: 100 µM [inhibitor, partial curve, poor fit] | –
COc1ccc(CCNC(=O)NCc2noc3ccccc23)c(OC)c1 | inactive | –
Cc1ccc(NC(=S)N(CCN(C)C)Cc2cccs2)c(C)c1 | inconclusive: 20 µM [inhibitor, full curve, poor fit] | –
Cc1ccc(-n2c(CCC(=O)O)ccc2-c2cccs2)cc1 | inconclusive: 31.6 µM [inhibitor, full curve, poor fit] | –
CC(C)CN(C(=O)COC(=O)CSc1ccc([N+](=O)[O-])cc1)C1CCS(=O)(=O)C1 (configuration not stated) | inconclusive: 79.4 µM [inhibitor, partial curve, poor fit] | –
Cc1ccc(OCCn2c(-c3ccc(Cl)cc3)nc3ccccc3c2=O)c(C)c1 | inactive | –
CN1CCN(C(=O)c2cnn(-c3ccccc3)c2NC(=O)c2ccccc2F)CC1 | – | inactive: -14.9% [at 11.4 µM]
CC(OC(=O)c1ccccc1O)C(=O)Nc1ccc(Cl)cn1 (configuration not stated) | inconclusive: 20 µM [inhibitor, full curve, poor fit] | –

SMILES | Potency | activity change, negative = inhibition
Cc1ccc(NC(=S)NC(=O)C2CC2)cc1Cl | inactive | –
O=C(O)CCc1ccc(-c2cccs2)n1-c1ccc(C(=O)O)cc1 | inconclusive: 28.2 µM [inhibitor, full curve, poor fit] | –
O=C(CNC(=O)c1ccc(Br)cc1)NC1CC1 | inactive | –
O=C(CSc1ccc(-c2ccco2)nn1)Nc1cccc(F)c1 | inconclusive: 35.5 µM [inhibitor, partial curve, poor fit] | –
CCOc1cc(C2c3c(oc4ccccc4c3=O)C(=O)N2Cc2ccc3c(c2)OCO3)ccc1O (configuration not stated) | inactive | –
CCOc1cc(N2CCOCC2)c(OCC)cc1NC(=O)CSc1ncccn1 | inconclusive: 70.8 µM [inhibitor, single point] | –
Cc1ccc(C)c(N=Cc2cc3c(cc2[N+](=O)[O-])OCO3)c1 | inconclusive: 89.1 µM [inhibitor, partial curve, poor fit] | –
COc1ccc(CNC(=O)c2cnn3c(C)c(Cc4ccc(F)cc4)c(C)nc23)cc1 | inactive | –
Cc1ccc(N2C(=O)C3C4C=CC(CNC(=S)Nc5cccc(Cl)c5)(O4)C3C2=O)cc1 (configuration not stated) | inconclusive: 50.1 µM [inhibitor, partial curve, poor fit] | –
CCCc1cc(=O)n2[nH]c(-c3cccc(Br)c3)cc2n1 | inconclusive: 50.1 µM [inhibitor, partial curve, poor fit] | –
Cc1ccn2cc(CSc3ccccc3N)nc2c1 | inconclusive: 89.1 µM [inhibitor, single point] | –
NC(=S)n1[nH]c(-c2ccc([N+](=O)[O-])cc2)c(N=Nc2cccc(Cl)c2)c1=O | inconclusive: 100 µM [inhibitor, single point] | –
Cc1ccnc(NC(c2ccccc2F)c2ccc3cccnc3c2O)c1 (configuration not stated) | inactive | –
O=C1CCCC(O)=C1C(C#Cc1ccccc1)C1=C(O)CCCC1=O | inconclusive: 35.5 µM [inhibitor, full curve, poor fit] | –
CCCn1c(=O)c2ccccc2n2c(Sc3nnnn3-c3ccccc3)nnc12 | inconclusive: 89.1 µM [inhibitor, single point] | –
COc1cc(OC)cc(C(=O)NC(C(=O)N2CCc3ccccc3C2)C(C)C)c1 (configuration not stated) | inconclusive: 70.8 µM [inhibitor, single point] | –
CCC(C)N(C(=O)CSc1nc(-c2cccs2)nc2ccccc12)C1CCS(=O)(=O)C1 (configuration not stated) | inconclusive: 89.1 µM [inhibitor, single point] | –
CC1=C(C(=O)Nc2ccc(C)cc2)C(c2ccc(C)o2)C2=C(CC(C)(C)CC2=O)N1 (configuration not stated) | inconclusive: 79.4 µM [inhibitor, partial curve, poor fit] | –
Oc1ccc(C=NNC(=S)Nc2cccnc2)nc1 | inactive | –
COc1ccc(NC(=O)c2c(NCc3cccs3)sc3c2CCCCC3)cc1 | inconclusive: 50.1 µM [inhibitor, partial curve, poor fit] | –
C=CCOc1ccccc1C1C2=C(CC(C)(C)CC2=O)Nc2c1c(=O)n(C)c(=O)n2C (configuration not stated) | inactive | –
CC1CC(C)CN(C(=O)C2CCC(CNc3c(N4CCCCC4)c(=O)c3=O)CC2)C1 (configuration not stated) | inactive | –
CCOc1ccc(CC(=O)N2CCC3(CC2)NCCc2[nH]cnc23)cc1 | inactive | –

SMILES | Potency | activity change, negative = inhibition
CCc1cccc(Nc2cc(C)nc3ncnn23)c1 | inconclusive: 89.1 µM [inhibitor, single point] | –
O=C(Cc1csc2ccccc12)NCc1ccc(F)cc1 | inconclusive: 89.1 µM [inhibitor, partial curve, poor fit] | –
CCN(CC)Cc1oc(CO)cc(=O)c1O | inactive | –
S=C(Nc1ccc(Oc2ccccc2)cc1)Nc1cccnc1 | inconclusive: 44.7 µM [inhibitor, partial curve, poor fit] | –
O=C(O)COc1ccc(/C=N/O)cc1Br | inconclusive: 50.1 µM [inhibitor, partial curve, poor fit] | –
CCN1C(=O)/C(=C/N2CCc3ccccc32)SC1=S | inactive | –
c1ccc(CSc2nnc(-c3ccco3)c(-c3ccco3)n2)cc1 | inconclusive: 44.7 µM [inhibitor, partial curve, poor fit] | –
CCCCCCCCCCCCCCCC[n+]1cccc2ccccc21 | inconclusive: 79.4 µM [inhibitor, partial curve, poor fit] | –
Cc1cc(C)c(Cn2c(=O)n(CCCC(=O)NCc3ccco3)c(=O)c3ccccc32)c(C)c1 | inconclusive: 100 µM [inhibitor, partial curve, poor fit] | –
COc1nc(-c2ccccc2)c2cc(C)ccc2n1 | inconclusive: 50.1 µM [inhibitor, partial curve, poor fit] | –
Cc1nn(-c2ccccc2)c(N)c1Sc1ccc([N+](=O)[O-])cc1 | inconclusive: 56.2 µM [inhibitor, partial curve, poor fit] | –
CCc1cc(=O)oc2c(CNCc3ccccc3F)c(O)c(Cl)cc12 | inconclusive: 35.5 µM [inhibitor, partial curve, poor fit] | –
O=C(CNC(c1ccccc1)c1ccccc1)NCc1ccccc1Cl | inactive | –
CSc1nc(-c2ccccc2)nc2c1COC(C)(C)C2 | inconclusive: 50.1 µM [inhibitor, partial curve, poor fit] | –
FC(F)(F)c1ccc(N2CCN(Cc3ccc4c(c3)OCO4)CC2)nc1 | inactive | –
Cc1ccc(NC(=O)C2(c3ccccc3)CCOCC2)cc1 | inconclusive: 28.2 µM [inhibitor, full curve, poor fit] | –
Nc1c(S(=O)(=O)O)cc(Nc2ccc(Nc3nc(Cl)nc(Nc4ccc(S(=O)(=O)O)cc4)n3)c(S(=O)(=O)O)c2)c2c1C(=O)c1ccccc1C2=O | active: 18.9 µM | –
COc1ccccc1C(CCN(Cc1cccs1)C(C)=O)c1ccco1 (configuration not stated) | inconclusive: 10 µM [inhibitor, full curve, poor fit] | –
COc1ccc(Cl)cc1NC(=O)CN(C)C(C)C(=O)NC(=O)NC1CCCCC1 (configuration not stated) | inactive | –
CC(=O)OCC1(C)CN(c2ccccc2)N(C(=O)c2ccc(F)cc2)C1=O (configuration not stated) | inconclusive: 89.1 µM [inhibitor, single point] | –
Cc1nnc(N/N=C/C2CC=CCC2)[nH]c1=O (configuration not stated) | inconclusive: 100 µM [inhibitor, single point] | –
